Test results reported in the supplement of paper PMC11741623.
The other results are listed elsewhere or left out. Interaction screen of human proteins with wild-type SARS-CoV-2 proteins by split-DHFR complementation in yeast, 1 µg/mL methotrexate. Value = fitness of the pair (three or more lineages) minus that of the viral protein without a human partner, on a scale set by negative (0) and fused positive (1) controls, mean of up to three cultures; higher = more likely to interact. Active = false discovery rate below 0.05 (one-sided t-test) in at least one culture. Nearly all pairs are not hits, and differences among them are mostly noise (correlation between cultures about 0.3); most hits were seen in one culture only. Human sequences are the Swiss-Prot entries looked up by gene name; the clone may be another isoform. NSP2 values were corrected by the authors for a growth advantage. Listed are human proteins with a hit and a random twelfth of the others.

B1: TCF19, Q9Y242 (protein)
chain: MLPCFQLLRIGGGRGGDLYTFHPPAGAGCTYRLGHRADLCDVALRPQQEPGLISGIHAELHAEPRGDDWRVSLEDHSSQGTLVNNVRLPRGHRLELSDGDLLTFGPEGPPGTSPSEFYFMFQQVRVKPQDFAAITIPRSRGEARVGAGFRPMLPSQGAPQRPLSTFSPAPKATLILNSIGSLSKLRPQPLTFSPSWGGPKSLPVPAPPGEMGTTPSAPPQRNRRKSVHRVLAELDDESEPPENPPPVLMEPRKKLRVDKAPLTPTGNRRGRPRKYPVSAPMAPPAVGGGEPCAAPCCCLPQEETVAWVQCDGCDVWFHVACVGCSIQAAREADFRCPGCRAGIQT
B2: HEYL, Q9NQ87 (protein)
chain: MKRPKEPSGSDGESDGPIDVGQEGQLSQMARPLSTPSSSQMQARKKHRGIIEKRRRDRINSSLSELRRLVPTAFEKQGSSKLEKAEVLQMTVDHLKMLHATGGTGFFDARALAVDFRSIGFRECLTEVIRYLGVLEGPSSRADPVRIRLLSHLNSYAAEMEPSPTPTGPLAFPAWPWSFFHSCPGLPALSNQLAILGRVPSPVLPGVSSPAYPIPALRTAPLRRATGIILPARRNVLPSRGASSTRRARPLERPATPVPVAPSSRAARSSHIAPLLQSSSPTPPGPTGSAAYVAVPTPNSSSPGPAGRPAGAMLYHSWVSEITEIGAF
B3: TEX2, Q8IWB9 (protein)
chain: MTSLYGRHAEKTTDMPKPSAPKVHVQRSVSRDTIAIHFSASGEEEEEEEEEFREYFEEGLDDQSIVTGLEAKEDLYLEPQVGHDPAGPAASPVLADGLSVSQAPAILPVSKNTVKLLESPVPAAQVLSTVPLAVSPGSSSSGPLASSPSVSSLSEQKTSSSSPLSSPSKSPILSSSASTSTLSSAKPFMSLVKSLSTEVEPKESPHPARHRHLMKTLVKSLSTDTSRQESDTVSYKPPDSKLNLHLFKQFTQPRNTGGDSKTAPSSPLTSPSDTRSFFKVPEMEAKIEDTKRRLSEVIYEPFQLLSKIIGEESGSHRPKALSSSASELSNLSSLNGHLESNNNYSIKEEECDSEGDGYGSDSNIPRSDHPKSTGEPTREIELKSSQGSSLKDLGLKTSSLVLEKCSLSALVSKEDEEFCELYTEDFDLETEGESKVDKLSDIPLKPEVLAEDGVVLDSEDEVDSAVQHPELPVKTLGFFIMCVYVYLILPLPHYVSGLFLGIGLGFMTAVCVIWFFTPPSAHKYHKLHKNLRHWNTRSLDIKEPEILKGWMNEIYNYDPETYHATLTHSVFVRLEGGTLRLSKPNKNISRRASYNEPKPEVTYISQKIYDLSDSKIYLVPKTLARKRIWNKKYPICIELGQQDDFMSKAQTDKETSEEKPPAEGSEDPKKPPRPQEGTRSSQRDQILYLFGRTGREKEEWFRRFILASKLKSEIKKSSGVSGGKPGLLPAHSRHNSPSGHLTHSRSSSKGSVEEIMSQPKQKELAGSVRQKMLLDYSVYMGRCVPQESRSPQRSPLQSAESSPTAGKKLPEVPPSEEEEQEAWVNALLGRIFWDFLGEKYWSDLVSKKIQMKLSKIKLPYFMNELTLTELDMGVAVPKILQAFKPYVDHQGLWIDLEMSYNGSFLMTLETKMNLTKLGKEPLVEALKVGEIGKEGCRPRAFCLADSDEESSSAGSSEEDDAPEPSGGDKQLLPGAEGYVGGHRTSKIMRFVDKITKSKYFQKATETEFIKKKIEEVSNTPLLLTVEVQECRGTLAVNIPPPPTDRVWYGFRKPPHVELKARPKLGEREVTLVHVTDWIEKKLEQEFQKVFVMPNMDDVYITIMHSAMDPRSTSCLLKDPPVEAADQP

These binders were tested against SARS-CoV-2 E (assay: yeast fitness gain over the viral ORF with no human partner (scaled fitness); higher = more likely to interact).
Experimental: (§1)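 Split mouse DHFR complementation in pooled diploid yeast: human ORFeome clones carry one fragment and viral ORFs the other; barcoded lineages compete in 1 µg/mL methotrexate and fitness is read by barcode sequencing in up to three cultures.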

Binder | yeast fitness gain
B1 | inactive: -0.0269
B2 | inactive: 0.0267
B3 | inactive: -0.0527

These binders were tested against SARS-CoV-2 M in the same assay as above.
Experimental: as §1

Binder | yeast fitness gain
B1 | inactive: 0.0191
B2 | inactive: -0.0432
B3 | inactive: 0.124

What follows are binders tested against SARS-CoV-2 N in the same assay as above.
Experimental: as §1

Binder | yeast fitness gain
B1 | inactive: -0.14
B2 | inactive: -0.231
B3 | inactive: 0.0358

The binders below were run against SARS-CoV-2 NSP1 in the same assay as above.
Experimental: as §1

Binder | yeast fitness gain
B1 | inactive: 0.0901
B2 | inactive: -0.0362
B3 | inactive: 0.0515

What follows are binders tested against SARS-CoV-2 NSP10 in the same assay as above.
Experimental: as §1

Binder | yeast fitness gain
B1 | inactive: -0.0101
B2 | inactive: 0.0388
B3 | inactive: -0.0314

These binders were tested against SARS-CoV-2 NSP12 in the same assay as above.
Experimental: as §1

Binder | yeast fitness gain
B1 | inactive: -0.0477
B2 | inactive: -0.0752
B3 | inactive: -0.00603

These binders were tested against SARS-CoV-2 NSP13 in the same assay as above.
Experimental: as §1

Binder | yeast fitness gain
B1 | inactive: -0.026
B2 | inactive: 0.00556
B3 | inactive: -0.0565

What follows are binders tested against SARS-CoV-2 NSP15 in the same assay as above.
Experimental: as §1

Binder | yeast fitness gain
B1 | inactive: -0.0139
B2 | inactive: -0.394
B3 | inactive: -0.00206

What follows are binders tested against SARS-CoV-2 NSP16 in the same assay as above.
Experimental: as §1

Binder | yeast fitness gain
B1 | inactive: -0.0121
B3 | inactive: -0.0205

What follows are binders tested against SARS-CoV-2 NSP2 in the same assay as above.
Experimental: as §1

Binder | yeast fitness gain
B1 | inactive: -0.124
B2 | inactive: -0.13
B3 | inactive: -0.109

These binders were tested against SARS-CoV-2 NSP5 in the same assay as above.
Experimental: as §1

Binder | yeast fitness gain
B1 | inactive: -0.00104
B2 | inactive: 0.0324
B3 | inactive: 0.000856

What follows are binders tested against SARS-CoV-2 NSP6 in the same assay as above.
Experimental: as §1

Binder | yeast fitness gain
B1 | inactive: 0.00325
B2 | inactive: -0.00907
B3 | inactive: -0.0182

The binders below were run against SARS-CoV-2 NSP7 in the same assay as above.
Experimental: as §1

Binder | yeast fitness gain
B1 | inactive: 0.0214
B2 | inactive: 0.0731
B3 | inactive: 0.0472

These binders were tested against SARS-CoV-2 NSP8 in the same assay as above.
Experimental: as §1

Binder | yeast fitness gain
B1 | inactive: 0.0282
B2 | inactive: 0.0883
B3 | inactive: -0.00611

The binders below were run against SARS-CoV-2 NSP9 in the same assay as above.
Experimental: as §1

Binder | yeast fitness gain
B1 | inactive: -0.0193
B3 | inactive: -0.178

Each binder was assayed against SARS-CoV-2 ORF10 in the same assay as above.
Experimental: as §1

Binder | yeast fitness gain
B1 | inactive: -0.0547
B2 | inactive: -0.101
B3 | inactive: 0.0144

The binders below were run against SARS-CoV-2 ORF3A in the same assay as above.
Experimental: as §1

Binder | yeast fitness gain
B1 | inactive: 0.0698
B2 | inactive: -0.169
B3 | inactive: 0.0573

These binders were tested against SARS-CoV-2 ORF3B in the same assay as above.
Experimental: as §1

Binder | yeast fitness gain
B1 | inactive: 0.017
B2 | inactive: 0.028
B3 | inactive: -0.0376

Each binder was assayed against SARS-CoV-2 ORF6 in the same assay as above.
Experimental: as §1

Binder | yeast fitness gain
B1 | inactive: -0.0353
B2 | inactive: 0.0558
B3 | inactive: 0.0374

Each binder was assayed against SARS-CoV-2 ORF7A in the same assay as above.
Experimental: as §1

Binder | yeast fitness gain
B1 | inactive: 0.0349
B2 | inactive: -0.222
B3 | inactive: 0.00898

The binders below were run against SARS-CoV-2 ORF7B in the same assay as above.
Experimental: as §1

Binder | yeast fitness gain
B1 | inactive: -0.0266
B2 | inactive: -0.0335
B3 | inactive: -0.043

What follows are binders tested against SARS-CoV-2 ORF8 in the same assay as above.
Experimental: as §1

Binder | yeast fitness gain
B1 | inactive: 0.0059
B2 | inactive: 0.0573
B3 | inactive: 0.0315

Each binder was assayed against SARS-CoV-2 ORF9B in the same assay as above.
Experimental: as §1

Binder | yeast fitness gain
B1 | inactive: -0.0338
B2 | inactive: -0.16
B3 | inactive: -0.0291

Each binder was assayed against SARS-CoV-2 ORF9Bwu (the 73-codon ORF) in the same assay as above.
Experimental: as §1

Binder | yeast fitness gain
B1 | inactive: 0.0671
B3 | inactive: 0.0416

The binders below were run against SARS-CoV-2 S in the same assay as above.
Experimental: as §1

Binder | yeast fitness gain
B1 | inactive: -0.0614
B2 | inactive: 0.103
B3 | inactive: 0.0613

What follows are binders tested against SARS-CoV-2 NSP4 in the same assay as above.
Experimental: as §1

Binder | yeast fitness gain
B3 | inactive: -0.272
